For test [1], the target named is T1, GST-JP45 fusion protein encompassing JP45 C-terminal domain (amino acid residues 149-332) (UniProt Q3MI48).
T1 sequence: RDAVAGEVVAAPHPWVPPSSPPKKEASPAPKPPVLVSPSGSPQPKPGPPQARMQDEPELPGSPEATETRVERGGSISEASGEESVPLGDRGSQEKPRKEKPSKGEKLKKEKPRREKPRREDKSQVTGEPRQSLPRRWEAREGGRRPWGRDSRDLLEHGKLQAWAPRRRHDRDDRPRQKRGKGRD
The experiment in a line: pull-down; GST-JP45 C-terminal domain on beads with solubilised SR proteins in 130 mM KCl, 20 mM NaCl, at the highest Ca2+ of the series (1 mM for CASQ1 of 0.1, 0.5, 1 mM; 0.5 mM for CASQ2 of 0.05, 0.1, 0.5 mM); only the target purified.

Chains of the proteins cited; added tags and fusions are not shown. Residues count along the entry.
UniProt O09165, residues 35-405: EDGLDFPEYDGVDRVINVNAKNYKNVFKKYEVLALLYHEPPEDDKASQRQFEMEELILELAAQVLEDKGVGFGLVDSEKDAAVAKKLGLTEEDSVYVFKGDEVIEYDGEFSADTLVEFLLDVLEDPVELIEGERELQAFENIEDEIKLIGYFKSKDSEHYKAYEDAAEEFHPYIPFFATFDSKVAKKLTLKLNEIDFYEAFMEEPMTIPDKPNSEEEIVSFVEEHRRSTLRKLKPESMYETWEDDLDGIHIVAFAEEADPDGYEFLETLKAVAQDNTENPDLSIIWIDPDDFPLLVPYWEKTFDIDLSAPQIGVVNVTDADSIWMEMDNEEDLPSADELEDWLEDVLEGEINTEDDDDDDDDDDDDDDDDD

In test [2] the target is T1, GST-JP45 fusion protein encompassing JP45 C-terminal domain (amino acid residues 149-332). Kind of test: pull-down; GST fusion protein (or GST) on glutathione-Sepharose beads incubated with CHAPS-solubilised SR proteins; 50 mM Tris-HCl pH 8.5, 1 mM DTT, 20 mM NaCl, 0.1% CHAPS, 1 mM CaCl2; 2 h at 4 °C; immunoblot with anti-CASQ1 or anti-CASQ2; only the target purified. (In western blotting, separated proteins are transferred to a membrane and probed.)

The target is the same in test [3]. The experiment in a line: pull-down; GST-JP45 C-terminal domain on beads with solubilised SR proteins in 130 mM KCl, 20 mM NaCl, at 100 μM Ca2+; only the target purified.
For test [4] the target is unchanged. The experiment in a line: pull-down; as a1 but with 1 mM EGTA instead of CaCl2 (nanomolar calcium): 50 mM Tris-HCl pH 8.5, 1 mM DTT, 20 mM NaCl, 0.1% CHAPS; only the target purified.
The target is the same in test [5]. Kind of test: pull-down; as Fig. 6 panels A and B, but solubilisation and interaction with the GST-JP45 fusion protein in the presence of 1 M NaCl; only the target purified.

Results are given in words; binding and its absence hold for the method and conditions named. In cells and extracts the contact can be indirect. Some binding calls cover weakened binding; strength is not graded here. Where a sequence is shown, tags or fusion partners need not be part of it.

For the molecule “calsequestrin 1 (CASQ1), skeletal isoform (from UniProt O09165 35-405)”, the binding result in test [1] is “binds”; in test [2], “binds”; in test [3] it was “binds weakly”; in test [4], “binds weakly”.

B1: calsequestrin 2 (CASQ2), cardiac isoform (protein, UniProt O09161 20-415)
chain: EEGLNFPTYDGKDRVVSLSEKNLKQMLKRYDLLCLYYHEPVSSDKVSQKQFQLKEIVLELVAQVLEHKNIGFVMVDSRKEAKLAKRLGFSEEGSLYVLKGDRTIEFDGEFAADVLVEFLLDLIEDPVEIVNNKLEVQAFERIEDQTKLLGFFKNEDSEYYKAFQEAAEHFQPYIKFFATFDKAVAKKLSLKMNEVGFYEPFMDEPNVIPNKPYTEEELVEFVKEHQRPTLRRLRPEDMFETWEDDLNGIHIVAFAEKSDPDGYEFLEILKQVARDNTDNPDLSILWIDPDDFPLLVAYWEKTFKIDLFKPQIGVVNVTDADSIWMEIPDDDDLPTAEELEDWIEDVLSGKINTEDDDNEDEDDDGDDNDDDDDDDDDNDNSDEDNEDSDDDDDDDE
Turning to B1, the binding result in test [1] was “binds”; in test [2], “binds”; in test [3], “binds weakly”; in test [5], “no binding (condition: with 1 M NaCl)”; in test [4], “binds weakly”.

The values are drawn from PMC4938177.
